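Five compound concentrations were applied to cells in 96-well plates for 48 hours; endpoints were derived by simple linear interpolation of the resulting dose-response curve. GI50: concentration for 50% inhibition of growth.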 Activity calls are given as the source filed them. Rule as the data show it: active = GI50 up to about 1.1 µM and inactive = higher.

The assay deals with NCI-H322M. Nature of the assay: NCI anticancer screen, dose series, 48 h.
With `Cc1cccc(-c2cc(O)c3c(C)cc(C)nc3n2)c1`, the GI50 was inactive: 4.11 µM.

As to `COc1ccc(C(=O)/C=C/c2ccc(O)c(O)c2)c(OC)c1`, the GI50 was inactive: 1.52 µM.

On to `CCCn1c2c(c3ccccc3c1=O)C(=O)c1ccccc1-2`, for which the GI50 was inactive: > 81.1 µM.

On to `NNC1=NC(=O)NC(=O)C1`, for which the GI50 is inactive: > 100 µM.

On to `CSc1nc(O)c(C#N)c(-c2ccccc2)n1`, for which the GI50 is inactive: > 100 µM.

Take `CCOC(=O)C(=O)C1C(=O)Nc2ccccc21` (stereo unspecified): the GI50 is inactive: > 100 µM.

For the compound `CCOC(=O)c1c(N=C(S)Nc2ccc(Cl)cc2)sc2c1CCN(C)C2`, the GI50 was inactive: > 100 µM.

As for `CCOC(=O)CC1Nc2ccccc2C12CCc1c([nH]c3ccccc13)C2C(=O)OCC` (stereo unspecified), the GI50 was inactive: 19.6 µM.

`COc1ccc(OC2OC(CO)C(OCc3ccccc3)C(OCc3ccccc3)C2OCc2ccccc2)cc1` (stereo unspecified): the GI50 is inactive: > 100 µM.

Regarding `CCC(=O)C1(N2CCOCC2)CCN(CCCC(=O)c2ccc(F)cc2)CC1`, the GI50 is inactive: > 100 µM.

`CN1C(=O)C(O)C[C@@H]1c1ccccc1` (stereo partly specified): the GI50 was inactive: > 100 µM.

Regarding `Cc1ccccc1C1CC(c2ccccc2)=NO1` (stereo unspecified), the GI50 is inactive: > 100 µM.

Turning to `O=[N+]([O-])c1ccc(N2CCC(CCCC3CCN(c4ccc([N+](=O)[O-])cc4[N+](=O)[O-])CC3)CC2)c([N+](=O)[O-])c1`, the GI50 is inactive: 15.6 µM.

For the compound `CC(NC(=O)C(N)CC(=O)O)NC(=O)N(C)C(C)(C)C` (stereo unspecified), the GI50 is inactive: > 100 µM.

As for `CC1=C(C(=O)Nc2ccccc2C)C(c2ccc(C3C(C(=O)Nc4ccccc4C)=C(C)NC(C)=C3C(=O)Nc3ccccc3C)cc2)C(C(=O)Nc2ccccc2C)=C(C)N1`, the GI50 is inactive: 10.4 µM.

Take `O=C(/C=C/c1ccccc1)CCC1C(=O)NC(=O)NC1=O`: the GI50 was inactive: > 100 µM.

As to `CC(CCCC1SCC2NC(=O)NC21)C(=O)O` (stereo unspecified), the GI50 was inactive: > 100 µM.

For `CCOC(=O)NC(=O)c1cn(CCN2CCN(C(=O)CCCCCCCCCCNc3ncnc4c3ncn4C3OC(CO)C(O)C3O)CC2)c(=O)[nH]c1=O` (stereo unspecified), the GI50 was inactive: > 100 µM.

For `CCCCN(CCCC)C(=Nc1ccccc1)N(CCCC)CCCC`, the GI50 was inactive: 12.9 µM.

Regarding `CCOP(=O)(OCC)/C(F)=C/c1ccc(F)cc1`, the GI50 was inactive: > 100 µM.

On to `CC(C)(NO)/C(=N\O)c1ccccc1`, for which the GI50 was inactive: > 10 µM.

As to `NC1=Nc2ccccc2Sc2nncn21`, the GI50 is inactive: > 100 µM.

Turning to `O=C(c1ccccc1)[C@H]1Nc2ccc(Cl)cc2[C@H]2c3ccccc3O[C@H]21`, the GI50 is inactive: 14.8 µM.

As for `CCOC(=O)C1C(c2ccc(OC)cc2)c2c(n[nH]c2O)CC1(O)OCC` (stereo unspecified), the GI50 is inactive: > 100 µM.

`COc1cc(OC)c2c(=O)cc(-c3ccccc3F)[nH]c2c1`: the GI50 is inactive: 65.6 µM.

`C[n+]1c2ccccc2c(CNc2ccc(S(=O)(=O)N=C(N)N)cc2)c2ccccc21`: the GI50 is inactive: 18.6 µM.

On to `CC12CP(=O)(c3ccccc3)CC1c1ccccc1C2c1ccccc1` (stereo unspecified), for which the GI50 was inactive: 74.8 µM.

With `CCCCCNC(=O)OC1CCn2c1nc1c2C(=O)C(C)=C(N2CC2)C1=O` (stereo unspecified), the GI50 is inactive: 1.6 µM.

On to `COC(=O)C1CCC(=O)N1C(c1ccc(OC)cc1)c1ccc(OC)cc1` (stereo unspecified), for which the GI50 is inactive: > 100 µM.

Turning to `CC(C)(Br)C(=O)C(Br)Br`, the GI50 was inactive: 17.2 µM.

As for `CC(C)(C)OC(=O)CCCCCNC(=O)CCCCCNC(=O)CCC(CN(CC(=O)OCc1ccccc1)CC(=O)OCc1ccccc1)N(CC(=O)OCc1ccccc1)CC(=O)OCc1ccccc1` (stereo unspecified), the GI50 is inactive: > 100 µM.

On to `N#CC(C#N)=c1ccc(=C2N3CCCC3CN2C23CC4CC(CC(C4)C2)C3)cc1` (stereo unspecified), for which the GI50 is inactive: > 100 µM.

As for `CCOc1ccc(NC(=O)CC2SC(Nc3ccc(Cl)cc3)=NC2=O)cc1` (stereo unspecified), the GI50 was inactive: > 100 µM.

For the compound `CCC/C(=N\NC(=S)N1CC2CCC(CC2)C1)c1ccccn1`, the GI50 was active: 0.288 µM.

As to `C=C(CCCCC)CN1CCCC1[C@@](C)(O)CC(=O)OCC` (stereo partly specified), the GI50 is inactive: > 100 µM.

For `CC(C)N(C(C)C)S(=O)(=O)CC12CCC(C/C1=N\O)C2` (stereo unspecified), the GI50 was inactive: > 100 µM.

Turning to `c1ccc(CN(Cn2cccn2)Cn2cccn2)nc1`, the GI50 is inactive: > 100 µM.

For the compound `CCC12CCCN(Cc3ccccc3)C1c1c(n(C)c3ccccc13)CC2` (stereo unspecified), the GI50 is inactive: > 253 µM.

Take `COc1cc(OC)c(-n2[nH]c(=O)n(C)c2=O)c(OC)c1`: the GI50 is inactive: > 100 µM.

As to `CN1CCN(C(=O)CCC(=O)Nc2cc3c(c4ccccc24)-c2ccc4ccccc4c2C3)CC1`, the GI50 is inactive: 1.56 µM.

Take `CC1(C)CC[C@]2(C)CC=C3[C@]4(C)CC[C@H]5C(C)(C)C(=O)CC[C@]5(C)[C@H]4CC[C@@]3(C)[C@H]2C1`: the GI50 was inactive: > 100 µM.

For `CCOC(=O)c1sc2nc(SC)nc3c2c1NCN3c1ccccc1Cl`, the GI50 is inactive: > 100 µM.

Take `C=C1c2nc3ccccc3n2C=C(c2ccc(OC)cc2)N1c1ccc(OC)cc1`: the GI50 is inactive: 22.7 µM.

On to `Cc1cccc(N2C(=O)/C(=C/c3ccc(N(CCC#N)CCC#N)cc3C)N=C2c2cc([N+](=O)[O-])ccc2Cl)c1`, for which the GI50 was inactive: > 100 µM.

Turning to `CC1CC(C2=CC=CCS2)=Nc2ccccc2S1` (stereo unspecified), the GI50 was inactive: > 100 µM.

Consider `Oc1ccc(-c2nc(-c3ccc4ccccc4n3)c(-c3ccc(F)cc3)[nH]2)cc1`, for which the GI50 was inactive: 15.4 µM.

Regarding `Cc1cc(-c2ccc(C(=O)C(c3ccccc3)(c3ccccc3)c3ccccc3)[nH]2)on1`, the GI50 is inactive: 15.9 µM.

For the compound `CC12ON(P(=O)(c3ccccc3)c3ccccc3)C(C)(c3ccccc31)c1ccccc12`, the GI50 was inactive: > 100 µM.

Consider `O=C(O)CN(CC(=O)O)Cc1ccn(-c2cccc(-n3ccc(CN(CC(=O)O)CC(=O)O)n3)n2)n1`, for which the GI50 is inactive: > 100 µM.

`CC[P+](C#Cc1ccccc1)(c1ccccc1)c1ccccc1`: the GI50 was inactive: 3.48 µM.

As to `CN(C)CCNc1c([N+](=O)[O-])sc2ccc(Cl)cc12`, the GI50 is inactive: 4.24 µM.

Consider `Cc1cc(N(CCC#N)CCC#N)ccc1C(/N=N/c1ccc([N+](=O)[O-])cc1)=N\NC(=O)c1ccccc1`, for which the GI50 was inactive: 44.7 µM.

With `CC1(C)C=Cc2c(cc(O)c3c(=O)c4cc(Cl)ccc4[nH]c23)O1`, the GI50 is inactive: 2.8 µM.

For `C[C@@H](C[C@H]1OC(C)(C)O[C@@H]1C(C)(C)O)[C@H]1CC=C2[C@]3(C)[C@H](O)C[C@H]4C(C)(C)[C@H](O)CC[C@]4(C)[C@H]3CC[C@]21C`, the GI50 is inactive: 11.8 µM.

Regarding `C1CCN2CC34CC(CC5CCCN(C6CCCC3N6)C54)C2C1` (stereo unspecified), the GI50 is inactive: > 100 µM.

As for `CC(C)=CCNc1ncnc2c1ncn2CCC#N`, the GI50 was inactive: > 100 µM.

On to `Cc1ccc(-c2cc(N)n(-c3nc4c([nH]3)c(=O)n(C)c(=O)n4C)n2)cc1`, for which the GI50 was inactive: 4.04 µM.

Turning to `COC(=O)CCSC1=CC(=O)c2nc3ccccc3c3ccnc1c23`, the GI50 is inactive: > 38.4 µM.

For `Cc1cccc2nc3cccc(C(=O)NCCC[N+](C)(CCCNC(=O)c4cccc5nc6cccc(C)c6nc45)Cc4ccc([N+](=O)[O-])n4C)c3nc12`, the GI50 is inactive: 1.5 µM.

For `CCCC12Cc3c(OC)ccc(OC)c3CC(Cc3c(OC)ccc(OC)c31)C2=O` (stereo unspecified), the GI50 is inactive: > 100 µM.

Turning to `Cc1ccc2c(c1)OC1Nc3ccccc3C1=C2O` (stereo unspecified), the GI50 is inactive: 30.5 µM.

As to `CN(CCCNC(=O)c1n[nH]c2c1ccc1ccccc12)CCCNC(=O)c1n[nH]c2c1ccc1ccccc12`, the GI50 was inactive: 19.6 µM.

With `CC(C)(C)OC(=O)NC(Cc1ccc(OCc2ccccc2)cn1)C(=O)O` (stereo unspecified), the GI50 was inactive: > 100 µM.

In the case of `Cc1cc(-c2nc3ccc(F)cc3s2)ccc1NC(=O)[C@H](C)N`, the GI50 was inactive: 7.82 µM.

For `CC(C)(C)OC/C=C(\Br)CO`, the GI50 was inactive: > 100 µM.

On to `[N-]=[N+]=NC1=C(C(=O)c2ccccc2)C(=O)c2cccc3cccc1c23`, for which the GI50 is inactive: 71.8 µM.

As to `C#CCNC(=O)NC(CCCCNC(=O)OCc1ccccc1)C(=O)OCc1ccccc1` (stereo unspecified), the GI50 is inactive: > 100 µM.

Regarding `CCOC(=O)C(Cc1ccc2c(c1)CCC2)(Cc1ccc2c(c1)CCC2)C(=O)OCC`, the GI50 is inactive: > 100 µM.

On to `CCCCCC(/C=C/C1CCC(=O)C1)OCOCCOC` (stereo unspecified), for which the GI50 is inactive: > 100 µM.

Regarding `O=c1cccccc1NCCNc1cccccc1=O`, the GI50 was inactive: > 100 µM.

In the case of `N=C(/C=C/c1ccc(-c2cn3cc(/C=C/C(=N)N4CCOCC4)ccc3n2)cc1)N1CCOCC1`, the GI50 is inactive: > 100 µM.

With `Cc1ccc(C2(O)CC(c3ccc([N+](=O)[O-])o3)=NN2C(=O)COc2ccc(Cl)cc2)cc1` (stereo unspecified), the GI50 was inactive: 6.04 µM.

Turning to `CC1(C)CC(=O)C2=C(C1)C(c1ccccc1Cl)C1C(=O)CC(C)(C)CC1(O)O2` (stereo unspecified), the GI50 was inactive: > 100 µM.

As to `COc1cc(-c2nc3cc(F)ccc3s2)ccc1O`, the GI50 was inactive: 38.1 µM.

As for `COc1cc(/C=C/C(=O)N[C@@H]2C(=O)N3[C@@H]2SC(C)(C)[C@@H]3C(=O)O)cc(OC)c1OC`, the GI50 is inactive: > 100 µM.

For the compound `CC1OC(OC2C[C@](O)(C(=O)CBr)Cc3c(O)c4c(c(O)c32)C(=O)c2ccccc2C4=O)C(F)C(O)C1O` (stereo partly specified), the GI50 is inactive: 39.5 µM.

Take `Oc1cccc(-c2cc(O)c3cc4c(cc3n2)OCO4)c1`: the GI50 is inactive: 3.32 µM.

In the case of `C=C(C)C1CCC2(C)C1CCC1(C)C2CCC2C3(C)C4OC(OC4=O)C(C)(C)C3CCC21C` (stereo unspecified), the GI50 is inactive: > 100 µM.

For the compound `Nc1ccccc1S(=O)(=O)N(CC(=O)O)c1ccccc1`, the GI50 is inactive: > 100 µM.

Take `Nc1ccn(C2OC(CO)C(O)C2O)c(=O)c1` (stereo unspecified): the GI50 is inactive: > 625 µM.

As to `C=CC/C=C/C/C=C/CCCCCCCc1cccc(O)c1C(=O)O`, the GI50 was inactive: > 100 µM.

The record behind these values is ChEMBL document CHEMBL1201862, “PubChem BioAssay data set” (2004).
